In assay [1] the test system is cabbage Alternaria sooty spot fungi (Alternaia brassicicola). Nature of the assay: Test Example C: cabbage Alternaria sooty spot, spray treatment of cabbage plants. It counts as in vivo. The following applies: spray treatment of cabbage plants; control value=100{1-(n/3)}. An excerpt: [Test Example C] Cabbage Alternaria Sooty Spot
Test plants (cabbage variety: Shikidori) were cultivated until the cotyledons extended after the sowing of seeds.
<Control Value> Control value=100{1−(n/3)}

Assay [2] deals with wheat brown rust fungi (Puccinia recondita). Nature of the assay: Test Example E: wheat brown rust, spray treatment of wheat plants. As to conditions: spray treatment of wheat plants; control value=100{1-(n/3)}. It counts as in vivo.
The subject of assay [3] is gray mold fungi (Botrytis cinerea). Nature of the assay: Test Example B: tomato gray mold, spray treatment of tomato plants. As to conditions: spray treatment of tomato plants; control value=100{1-(n/3)}.
In assay [4] the test system is grape downy mildew fungus (Plasmopara viticola). Kind of assay: Test Example G: grape downy mildew, spray treatment of grape plants. As to conditions: 250 ppm spray, 2.5 ml/pot, grape Neomuscat; 7 to 10 days from inoculation.
The test system of assay [5] is barley powdery mildew fungi (Blumeria graminis f. sp. hordei). Nature of the assay: Test Example D: barley powdery mildew, spray treatment of barley plants. The following applies: spray treatment of barley plants; control value=100{1-(n/3)}.

Here are results for 13 compounds from patent US11000038B2, “Pyridone compounds and agricultural and horticultural fungicides containing the same as active ingredients” (priority 2017, dated 2021).

Consider `COc1cc(F)c(-c2c(Cl)c(=O)c(Br)cn2C(C)C)c(F)c1` [Compound 19], for which the “Test C control value class (cabbage Alternaria sooty spot)” value (“Test C control value class” below) in assay [1] is recorded as “H (H shows the control value of more than 50%)”. In addition, in assay [2], the “Test E control value class (wheat brown rust)” value (“Test E control value class” below) is listed as “H (H shows the control value of more than 50%)”. For the same compound, the “Test B control value class (tomato gray mold)” value (“Test B control value class” below) in assay [3] is given as “H (H shows the control value of more than 50%)”. The “Test G control value class (grape downy mildew)” value (“Test G control value class” below) in assay [4] was “H (H shows the control value of more than 50%)”. In assay [5], the “Test D control value class (barley powdery mildew)” value (“Test D control value class” below) is given as “L (L shows the control value of 50% or less)”.
`O=c1c(Br)cn(-c2ccccc2F)c(-c2c(F)cc(F)cc2F)c1Cl` [Compound 20]: in assay [1], the “Test C control value class” value was “H (H shows the control value of more than 50%)”. For the same compound, in assay [2], the “Test E control value class” value is on record as “H (H shows the control value of more than 50%)”. The “Test B control value class” value in assay [3] is “H (H shows the control value of more than 50%)”. For the same compound, the “Test G control value class” value in assay [4] is listed as “L (L shows the control value of 50% or less)”. Also, the “Test D control value class” value in assay [5] is recorded as “L (L shows the control value of 50% or less)”.
Regarding `COc1cc(F)c(-c2c(Cl)c(=O)c(Br)cn2-c2ccccc2F)c(F)c1` [Compound 21], the “Test C control value class” value in assay [1] is recorded as “H (H shows the control value of more than 50%)”. The “Test E control value class” value in assay [2] is recorded as “H (H shows the control value of more than 50%)”. Besides, the “Test B control value class” value in assay [3] is given as “H (H shows the control value of more than 50%)”. In assay [4], the “Test G control value class” value is “L (L shows the control value of 50% or less)”. For the same compound, in assay [5], the “Test D control value class” value is “L (L shows the control value of 50% or less)”.
In the case of `O=c1c(Br)cn(-c2ccccc2F)c(-c2c(F)cc(F)cc2F)c1Br` [Compound 22], the “Test C control value class” value in assay [1] is “H (H shows the control value of more than 50%)”. Also, the “Test E control value class” value in assay [2] is recorded as “H (H shows the control value of more than 50%)”. Besides, in assay [3], the “Test B control value class” value is recorded as “H (H shows the control value of more than 50%)”. In assay [4], the “Test G control value class” value was “L (L shows the control value of 50% or less)”. Also, the “Test D control value class” value in assay [5] was “L (L shows the control value of 50% or less)”.
`COc1cc(F)c(-c2c(Br)c(=O)c(Br)cn2-c2ccccc2F)c(F)c1` [Compound 23]: in assay [1], the “Test C control value class” value was “H (H shows the control value of more than 50%)”. Also, the “Test E control value class” value in assay [2] is listed as “H (H shows the control value of more than 50%)”. Moreover, the “Test B control value class” value in assay [3] was “H (H shows the control value of more than 50%)”. The “Test G control value class” value in assay [4] is “L (L shows the control value of 50% or less)”. The “Test D control value class” value in assay [5] is “L (L shows the control value of 50% or less)”.
As for `O=c1c(Cl)cn(-c2ccccc2F)c(-c2c(F)cc(F)cc2F)c1Cl` [Compound 24], in assay [1], the “Test C control value class” value is on record as “H (H shows the control value of more than 50%)”. In addition, the “Test E control value class” value in assay [2] was “H (H shows the control value of more than 50%)”. Further, in assay [3], the “Test B control value class” value is recorded as “H (H shows the control value of more than 50%)”. Besides, in assay [4], the “Test G control value class” value is given as “H (H shows the control value of more than 50%)”. For the same compound, the “Test D control value class” value in assay [5] was “L (L shows the control value of 50% or less)”.
Take `O=c1c(Cl)cn(C2CCCCC2)c(-c2c(F)cc(F)cc2F)c1Br` [Compound 25]: the “Test C control value class” value in assay [1] is recorded as “H (H shows the control value of more than 50%)”. The “Test E control value class” value in assay [2] is “H (H shows the control value of more than 50%)”. Besides, the “Test B control value class” value in assay [3] is “H (H shows the control value of more than 50%)”. The “Test G control value class” value in assay [4] was “L (L shows the control value of 50% or less)”. Further, the “Test D control value class” value in assay [5] is reported as “L (L shows the control value of 50% or less)”.
With `O=c1c(Cl)cn(C2CCCCC2)c(-c2c(F)cc(F)cc2F)c1Cl` [Compound 26], in assay [1], the “Test C control value class” value is recorded as “H (H shows the control value of more than 50%)”. In addition, in assay [2], the “Test E control value class” value is “H (H shows the control value of more than 50%)”. The “Test B control value class” value in assay [3] is “H (H shows the control value of more than 50%)”. The “Test G control value class” value in assay [4] was “L (L shows the control value of 50% or less)”. For the same compound, the “Test D control value class” value in assay [5] is “L (L shows the control value of 50% or less)”.
For the compound `COc1cc(F)c(-c2c(Br)c(=O)c(Cl)cn2C2CCCCC2)c(F)c1` [Compound 27], in assay [1], the “Test C control value class” value was “H (H shows the control value of more than 50%)”. Further, the “Test E control value class” value in assay [2] was “H (H shows the control value of more than 50%)”. Besides, the “Test B control value class” value in assay [3] is “H (H shows the control value of more than 50%)”. Further, the “Test G control value class” value in assay [4] is reported as “H (H shows the control value of more than 50%)”. The “Test D control value class” value in assay [5] is given as “H (H shows the control value of more than 50%)”.
Regarding `O=c1c(Br)cn(C2CCCCC2)c(-c2c(F)cc(F)cc2F)c1Cl` [Compound 29], the “Test C control value class” value in assay [1] is on record as “H (H shows the control value of more than 50%)”. Besides, the “Test E control value class” value in assay [2] is reported as “H (H shows the control value of more than 50%)”. Further, in assay [3], the “Test B control value class” value is reported as “L (L shows the control value of 50% or less)”. For the same compound, in assay [4], the “Test G control value class” value was “L (L shows the control value of 50% or less)”. For the same compound, the “Test D control value class” value in assay [5] is reported as “L (L shows the control value of 50% or less)”.
With `O=c1c(Br)cn(C2CCCCC2)c(-c2c(F)cc(F)cc2F)c1Br` [Compound 30], in assay [1], the “Test C control value class” value is listed as “H (H shows the control value of more than 50%)”. Besides, the “Test E control value class” value in assay [2] was “H (H shows the control value of more than 50%)”. The “Test B control value class” value in assay [3] was “H (H shows the control value of more than 50%)”. Besides, the “Test G control value class” value in assay [4] is reported as “L (L shows the control value of 50% or less)”. Besides, the “Test D control value class” value in assay [5] is recorded as “H (H shows the control value of more than 50%)”.
Take `O=c1c(Cl)cn(-c2ccccc2F)c(-c2c(F)cc(F)cc2F)c1Br` [Compound 31]: the “Test C control value class” value in assay [1] was “H (H shows the control value of more than 50%)”. The “Test E control value class” value in assay [2] is recorded as “H (H shows the control value of more than 50%)”. In addition, the “Test B control value class” value in assay [3] is “H (H shows the control value of more than 50%)”. The “Test G control value class” value in assay [4] is “L (L shows the control value of 50% or less)”. In assay [5], the “Test D control value class” value is “H (H shows the control value of more than 50%)”.
As to `COc1cc(F)c(-c2c(Cl)c(=O)c(Cl)cn2-c2ccccc2F)c(F)c1` [Compound 32], the “Test C control value class” value in assay [1] was “H (H shows the control value of more than 50%)”. Also, in assay [2], the “Test E control value class” value is on record as “H (H shows the control value of more than 50%)”. Also, the “Test B control value class” value in assay [3] is given as “H (H shows the control value of more than 50%)”. The “Test G control value class” value in assay [4] is on record as “L (L shows the control value of 50% or less)”. Besides, in assay [5], the “Test D control value class” value is reported as “L (L shows the control value of 50% or less)”.
